# Data published in PubChem BioAssay AID588453 (National Center for Advancing Translational Sciences (NCATS), 2011).
# In all, about 390,000 compounds went through this assay and about 4,000 (1%) were called active. The shares of active, inactive and inconclusive entries below differ from those in the screen. Calls come from the whole dose curve; as a rule, active = well fitted inhibition curve with a large enough effect; inconclusive = small, poorly fitted or top-dose-only effect; inactive = no such curve, though single readings can be large or run the other way. A potency beside an inconclusive call is a rough fit, not a confirmed value.
# Molecular target: Thioredoxin reductase 1, cytoplasmic (Rattus norvegicus) (UniProt O89049)
# Experiment: qHTS Assay for Inhibitors of Mammalian Selenoprotein Thioredoxin Reductase 1 (TrxR1): qHTS; note: nearly all actives have a fitted effect of over 65% in size
# Settings: recombinant rTrxR1, NADPH fluorescence consumption, selenite substrate; series mostly up to 114 µM
# How it was run: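 Rat TrxR1 (90 nM in the dispensed reagent) was pre-reduced with 400 uM NADPH for 5 min at room temperature, then incubated with compound for 15 min. After 400 uM selenite was added, NADPH fluorescence (Ex 340/Em 450 nm) was followed for 8 min.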
# % is set by controls: 0 for no effect and ±100 for the full control effect; potency is the fitted concentration of half-maximal effect; tags give direction and shape of the fitted curve.
# Sequence of UniProt O89049 (O89049 whole entry, looked up): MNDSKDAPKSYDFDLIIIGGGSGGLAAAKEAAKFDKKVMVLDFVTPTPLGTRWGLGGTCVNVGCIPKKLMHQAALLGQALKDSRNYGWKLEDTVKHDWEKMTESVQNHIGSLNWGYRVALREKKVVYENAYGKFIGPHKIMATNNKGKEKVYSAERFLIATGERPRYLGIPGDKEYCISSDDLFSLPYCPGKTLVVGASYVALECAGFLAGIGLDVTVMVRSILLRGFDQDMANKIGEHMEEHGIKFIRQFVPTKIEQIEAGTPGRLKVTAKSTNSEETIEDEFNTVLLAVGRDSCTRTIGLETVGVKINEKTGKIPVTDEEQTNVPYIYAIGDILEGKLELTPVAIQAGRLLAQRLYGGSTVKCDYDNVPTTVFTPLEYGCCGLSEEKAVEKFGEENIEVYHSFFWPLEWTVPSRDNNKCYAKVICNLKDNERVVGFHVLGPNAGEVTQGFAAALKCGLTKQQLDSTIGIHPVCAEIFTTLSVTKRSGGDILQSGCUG
SMILES,Potency,"activity change, negative = inhibition"
COc1cc(/C=C2\C(=O)N(CCC#N)N=C2C)c(Br)cc1OC(C)C,"inconclusive: 17.8 µM [inhibitor, full curve]",–
C[C@H](NC(=O)OC(C)(C)C)c1nnc(SCc2c(F)cccc2Cl)o1,–,inactive: 38.7% [at 11.4 µM]
Cc1nnc(NC(=O)C2CCN(S(=O)(=O)c3cc([N+](=O)[O-])ccc3Cl)CC2)o1,"inconclusive: 50.1 µM [inhibitor, partial curve]",–
COc1ccc(C2C=C(c3ccccc3)Nc3nc(CCCO)nn32)cc1 (configuration not stated),"inconclusive: 89.1 µM [inhibitor, single point]",–
Cc1cc(OCc2cc(C(=O)N(C)CCOc3ccccc3)no2)cc(C)c1Cl,inactive,–
CCN(C(=O)c1coc(=O)c(Br)c1)c1ccc2c(c1)OCO2,inactive,–
Cc1ccc(N2CCN(S(=O)(=O)c3nnc(NC(=O)c4ccco4)s3)CC2)cc1,"inconclusive: 39.8 µM [inhibitor, partial curve, poor fit]",–
COc1ccc(C2CC(c3cccs3)=NN2C(=O)CSC2=NCCS2)cc1 (configuration not stated),inactive,–
CCS(=O)(=O)c1ncc(Cl)c(C(=O)Nc2ccc(C)cc2)n1,"inconclusive: 14.1 µM [inhibitor, full curve]",–
COc1cccc(/C=C2\Oc3cc(OCC(=O)N4Cc5ccccc5C[C@H]4C(=O)O)ccc3C2=O)c1,"inconclusive: 89.1 µM [inhibitor, single point]",–
O=C(c1ccc(CS(=O)(=O)c2ccccc2)o1)N1CCN(c2ccccc2)CC1,"inconclusive: 89.1 µM [inhibitor, single point]",–
CC(=O)Nc1ccc(C(=O)CCl)cc1,"inconclusive: 70.8 µM [inhibitor, single point]",–
Cn1ccc2cc3c(cc21)CCN3C(=O)Nc1cccnc1,"inconclusive: 31.6 µM [inhibitor, partial curve, poor fit]",–
Cc1ccc(C)n1N1C(=O)/C(=C\c2ccc(Cl)cc2)SC1=S,"inconclusive: 7.94 µM [inhibitor, full curve, poor fit]",–
COC(=O)c1nc(N2CCN(S(=O)(=O)c3ccc(C)cc3)CC2)c2ccccc2n1,"inconclusive: 89.1 µM [inhibitor, partial curve, poor fit]",–
COc1ccc(C(=O)N2CCCC(CCC(=O)NCc3ccc(F)c(F)c3)C2)o1 (configuration not stated),"inconclusive: 31.6 µM [inhibitor, partial curve, poor fit]",–
CCc1ccc(CCC(=O)Nc2ccc(S(N)(=O)=O)cc2)o1,"inconclusive: 35.5 µM [inhibitor, partial curve, poor fit]",–
